Here are results for 87 molecules from article PMC4336329 (PLoS ONE, 2015).

The campaign covered roughly 310,000 compounds. About 14,000 (4.5%) showed an effect of 50% or more. Effects have a minus sign here. Some of the results follow.
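Note: peak tail current of the secondary pulse compared with the same well before compound.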

In this assay the target is human ether-à-go-go-related gene (hERG) potassium channel (human, UniProt Q12809). The assay can be described thus: primary screen, population patch clamp on CHO cells stably expressing hERG.
human ether-à-go-go-related gene (hERG) potassium channel, sequence (Q12809 whole entry, looked up): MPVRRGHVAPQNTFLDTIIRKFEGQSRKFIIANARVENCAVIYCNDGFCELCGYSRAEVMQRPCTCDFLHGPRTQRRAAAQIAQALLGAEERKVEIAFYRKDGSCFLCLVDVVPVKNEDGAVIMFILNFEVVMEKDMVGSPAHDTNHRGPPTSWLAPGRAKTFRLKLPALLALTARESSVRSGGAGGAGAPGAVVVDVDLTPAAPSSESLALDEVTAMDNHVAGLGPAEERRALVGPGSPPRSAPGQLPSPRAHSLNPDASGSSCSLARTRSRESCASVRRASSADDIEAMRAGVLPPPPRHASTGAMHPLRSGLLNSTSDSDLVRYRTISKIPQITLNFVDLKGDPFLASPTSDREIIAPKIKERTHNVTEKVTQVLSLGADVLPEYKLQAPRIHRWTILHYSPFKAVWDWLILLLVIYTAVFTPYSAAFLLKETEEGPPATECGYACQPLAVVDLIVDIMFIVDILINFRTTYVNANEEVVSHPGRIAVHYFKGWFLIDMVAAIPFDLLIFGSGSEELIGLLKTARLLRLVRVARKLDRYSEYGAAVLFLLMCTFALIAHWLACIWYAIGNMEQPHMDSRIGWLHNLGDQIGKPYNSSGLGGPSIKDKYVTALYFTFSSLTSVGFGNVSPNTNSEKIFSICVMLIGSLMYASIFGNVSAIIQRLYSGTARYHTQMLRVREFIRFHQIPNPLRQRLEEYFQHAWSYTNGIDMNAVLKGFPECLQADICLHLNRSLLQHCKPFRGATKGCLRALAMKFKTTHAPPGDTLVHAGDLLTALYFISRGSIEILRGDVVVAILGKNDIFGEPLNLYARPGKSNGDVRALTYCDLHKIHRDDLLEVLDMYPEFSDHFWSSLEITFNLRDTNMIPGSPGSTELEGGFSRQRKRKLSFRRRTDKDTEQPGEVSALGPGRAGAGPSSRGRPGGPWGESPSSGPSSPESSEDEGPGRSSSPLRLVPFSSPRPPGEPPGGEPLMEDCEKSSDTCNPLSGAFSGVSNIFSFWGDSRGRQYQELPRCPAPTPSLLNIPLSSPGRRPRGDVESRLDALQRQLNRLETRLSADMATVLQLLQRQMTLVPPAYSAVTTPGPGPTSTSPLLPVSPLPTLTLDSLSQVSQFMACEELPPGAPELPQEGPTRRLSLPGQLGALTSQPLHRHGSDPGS
On to `O=C(c1ccccc1-c1nc(-c2ccccc2Cl)no1)N1CCOCC1`, for which the “hERG current change (%, negative = inhibition) at 10uM” value is listed as -6.07%.
Consider `COC(=O)C(CCSC)NC(=O)CNS(=O)(=O)c1ccc(F)cc1` (stereo not drawn), for which the “hERG current change (%, negative = inhibition) at 10uM” value is recorded as 12.9%.
With `O=C(CCCn1c(SCc2cc(=O)n3ccccc3n2)nc2ccccc2c1=O)NCC1CCCO1` (stereo not drawn), the “hERG current change (%, negative = inhibition) at 10uM” value is recorded as -1.72%.
In the case of `COc1ccc([N+](=O)[O-])cc1-n1cnnn1` it was 19.2%.
`CCNC(=O)[C@H]1O[C@@H](n2cnc3c(N)ncnc32)[C@H](O)[C@@H]1O`: the “hERG current change (%, negative = inhibition) at 10uM” value was 18.5%.
`Brc1c(OCCOCCn2cncn2)ccc2ccccc12`: the “hERG current change (%, negative = inhibition) at 10uM” value was -12.6%.
Regarding `c1ccc(-n2nnnc2SCc2cccc3nsnc23)cc1`, the “hERG current change (%, negative = inhibition) at 10uM” value was found to be 1.56%.
Regarding `COc1ccc(/C=C/C(=O)N2CCC(c3ccccc3)C2)cc1` (stereo not drawn), the “hERG current change (%, negative = inhibition) at 10uM” value is -47.4%.
Then `CCn1ccnc1CN(C)Cc1cn(-c2cccc(C)c2)nc1-c1cccc(F)c1`, with -18.3%; and `O=C(COc1ccc2ccccc2c1)N1CCN(C(=O)c2cccnc2)CC1`, with -25%; and `O=C(COC(=O)c1cc(Cl)ccc1Cl)NC1CCCC1`, with -0.39%.
As to `COC(=O)C1SCC2C(=O)N(Cc3ccccc3)CC(=O)N21` (stereo not drawn), the “hERG current change (%, negative = inhibition) at 10uM” value was 26.1%.
As for `N#C/C(=C\c1ccc[nH]1)C(=O)N1CCCCC1`, the “hERG current change (%, negative = inhibition) at 10uM” value came to 13%.
For the molecule `COc1ccc(/C=N/NC(=O)CN(c2ccc(OC)cc2)S(=O)(=O)c2ccccc2)cc1`, the “hERG current change (%, negative = inhibition) at 10uM” value is -7.15%.
Then `CC(O)CNc1nc2ccccc2n1-c1ncnc2sc3c(c12)CCC3` (stereo not drawn), with -55.5%; and `O=C1NC(=NCc2ccccc2)S/C1=C/c1ccc(O)cc1`, with -11.4%.
In the case of `CC1CC(C)CN(S(=O)(=O)c2ccc(C(=O)Nc3sccc3C(N)=O)cc2)C1` (stereo not drawn) it was 14.8%.
With `Cc1ccc(CCNC(=O)CN2C(=O)COc3ccccc32)cc1`, the “hERG current change (%, negative = inhibition) at 10uM” value is given as -11.4%.
Consider `COc1ccc(CCNC(=O)CN2CCC(C)CC2)cc1OC.O=C(O)C(=O)O`, for which the “hERG current change (%, negative = inhibition) at 10uM” value is reported as 10.7%.
For `Cc1ccccc1OCC(=O)Nc1sc2c(c1C#N)CC(C)(C)NC2(C)C`, the “hERG current change (%, negative = inhibition) at 10uM” value was determined as 10.1%.
As to `CCOC(=O)C1CCN(C(=O)c2sc3nc(-c4ccccc4)cn3c2C)CC1`, the “hERG current change (%, negative = inhibition) at 10uM” value was -41%.
`Oc1ccc(/C=N/N2CCN(C3c4ccccc4-c4ccccc43)CC2)cc1`: the “hERG current change (%, negative = inhibition) at 10uM” value was determined as 9.56%.
Then `Cc1nc2ccccc2cc1C(=O)NCc1ccc(F)cc1`, with -30.6%.
In the case of `O=C(Cn1c(NCCO)nc2ccccc21)N1CCN(Cc2ccccc2)CC1` it was -9.47%; in that of `O=C(Nc1ccc2c(c1)CCC2)c1cccc(S(=O)(=O)N2CCN(c3ccc(F)cc3)CC2)c1`, -3.29%.
For `Cl.O=C(Nc1cccc(Cl)c1)NC1CCN(C2CCCCC2)C1` (stereo not drawn), the “hERG current change (%, negative = inhibition) at 10uM” value is -56.6%.
Regarding `Cc1ccc(-c2nnc(SCC(=O)NCC3CCCO3)n2C)cc1` (stereo not drawn), the “hERG current change (%, negative = inhibition) at 10uM” value is listed as 7.61%.
`CN(Cc1ccccc1)C(=O)COC(=O)c1ccc(Cl)c(N)c1`: the “hERG current change (%, negative = inhibition) at 10uM” value amounted to 0.779%.
`CCC(CC)C(=O)Nc1c2c(nn1-c1ccc(OC)cc1)CS(=O)(=O)C2`: the “hERG current change (%, negative = inhibition) at 10uM” value was -6.67%.
On to `Cc1cc(C(=O)OCC(=O)Nc2cc(S(=O)(=O)N(C)C)ccc2C)c2ccccc2n1`, for which the “hERG current change (%, negative = inhibition) at 10uM” value was -3.98%.
For `CCOC(=O)C1CCCN(C(=O)COc2ccccc2O)C1` (stereo not drawn), the “hERG current change (%, negative = inhibition) at 10uM” value is recorded as -1.94%.
Then `CN(C)S(=O)(=O)c1cccc(C(=O)NCC2CCCO2)c1` (stereo not drawn), with -2.18%; and `COc1ccc(N(CC(=O)N2CCOCC2)S(C)(=O)=O)cc1OC`, with 13.8%.
Regarding `COc1ccccc1N1C(=O)c2cccc3c(C(=O)O)ccc(c23)C1=O`, the “hERG current change (%, negative = inhibition) at 10uM” value is listed as -3.86%.
As for `Cc1cccc(NC(=O)CCC2CCN(Cc3nccs3)CC2)c1`, the “hERG current change (%, negative = inhibition) at 10uM” value is -41.5%.
Consider `CSc1ccc(S(=O)(=O)Nc2ccc(F)cc2)cc1`, for which the “hERG current change (%, negative = inhibition) at 10uM” value is recorded as 1.51%.
Consider `COc1ccc(CNC(=O)c2ccc(NS(=O)(=O)c3ccc4[nH]c(=O)[nH]c4c3)cc2)cc1OC`, for which the “hERG current change (%, negative = inhibition) at 10uM” value came to 13.3%.
In the case of `Cc1c(C(=O)Nc2cc(S(=O)(=O)N3CCOCC3)ccc2N2CCN(C)CC2)oc2ccccc12`, the “hERG current change (%, negative = inhibition) at 10uM” value is given as -10.8%.
In the case of `COc1cccc2sc(Nc3nnc(-c4ccc(F)cc4)o3)nc12`, the “hERG current change (%, negative = inhibition) at 10uM” value is recorded as -3.13%.
In the case of `O=C1NC(=O)C(=Cc2cc([N+](=O)[O-])ccc2N2CCCCC2)C(=O)N1` it was 7.84%; in that of `O=C(c1cc(=O)[nH]c2ccccc12)N1CCN(c2ccccc2)CC1`, 2.12%; in that of `Cc1cc(Nc2nc3ccccc3nc2Cl)n(-c2ccccc2C)n1`, -24.8%.
As for `Cl.NS(=O)(=O)c1ccc(CCNCc2cccnc2)cc1`, the “hERG current change (%, negative = inhibition) at 10uM” value was 18.4%.
With `CCc1nc(N[C@H](C(=O)O)C(C)C)c2oc3ccccc3c2n1`, the “hERG current change (%, negative = inhibition) at 10uM” value was found to be 16.9%.
`Cn1c(SCC(=O)Nc2ccccc2Cl)nnc1C1CC1`: the “hERG current change (%, negative = inhibition) at 10uM” value came to 3.21%.
In the case of `Cc1cc(C)c(C)c(S(=O)(=O)N2CCN(C(=O)c3ccncc3)CC2)c1C` it was -26.9%; in that of `CCCC(=O)Nc1nc(-c2ccc(Cl)s2)cs1`, 8.94%; in that of `O=C(/C=C/c1ccc([N+](=O)[O-])cc1)N(c1ccccn1)C1CCCCC1`, -29%.
Regarding `COc1ccc(COC(=O)C2CCN(S(=O)(=O)c3ccc(OC)c(OC)c3)CC2)cc1`, the “hERG current change (%, negative = inhibition) at 10uM” value is -14.3%.
Regarding `CC(=O)N/N=C/c1cc2c(cc1[N+](=O)[O-])OCO2`, the “hERG current change (%, negative = inhibition) at 10uM” value amounted to 14.2%.
`CCOC(=O)CCc1c(C)nc2c(c(C)nn2C(C)(C)C)c1C`: the “hERG current change (%, negative = inhibition) at 10uM” value is reported as -2.38%.
Turning to `CCn1ncc([N+](=O)[O-])c1C(=O)NC1CCCCC1`, the “hERG current change (%, negative = inhibition) at 10uM” value was 16.2%.
In the case of `CC(C)c1ccc(NC(=O)c2csnn2)cc1` it was 3.7%.
`CN(C)C(CNc1ncccn1)c1ccccc1` (stereo not drawn): the “hERG current change (%, negative = inhibition) at 10uM” value was determined as 16.5%.
Then `CN(Cc1ccco1)S(=O)(=O)c1csc(C(N)=O)c1`, with 6.37%.
`O=C1c2ccccc2C(=O)N1CCCCN(C(=O)c1cc2ccccc2oc1=O)c1ccc(F)cc1F`: the “hERG current change (%, negative = inhibition) at 10uM” value was 1.03%.
Regarding `CCOC(=O)N1CCC(NC(=O)C(Cc2ccccc2)NC(=O)c2ccco2)CC1` (stereo not drawn), the “hERG current change (%, negative = inhibition) at 10uM” value is listed as -0.741%.
Then `Cc1[nH]c(=O)[nH]c(=O)c1S(=O)(=O)Nc1ccc(S(N)(=O)=O)cc1`, with 21.2%; and `COC(=O)c1ccc(Oc2nc3c(c(=O)n(C)c(=O)n3C)n2CCC(C)C)cc1`, with 3.24%; and `Cc1cccc(C(=O)NNC(=O)CCn2nnc3ccccc32)c1`, with 12.7%.
With `Oc1c(Cl)cc(Cl)cc1CNn1cnnc1`, the “hERG current change (%, negative = inhibition) at 10uM” value was 23.1%.
In the case of `COc1ccc(C(C)(C)C)cc1NC(=O)C1C2C=CC(C2)C1C(=O)O` (stereo not drawn), the “hERG current change (%, negative = inhibition) at 10uM” value came out at 12.5%.
On to `Cc1ccc(C(=O)NCC(c2ccco2)N2CCc3ccccc3C2)cc1C` (stereo not drawn), for which the “hERG current change (%, negative = inhibition) at 10uM” value is listed as -5.02%.
In the case of `Cc1ccc(C#CC[N+](C)(C)CC#Cc2ccccc2)cc1.[Br-]` it was -75.9%.
In the case of `COc1ccc(-n2c(SC(C)C(=O)N3CCOCC3)nc3ccccc3c2=O)cc1` (stereo not drawn) it was 6.84%.
As for `O=C(Nc1sc2c(c1C(=O)O)CCC2)c1cccc(Cl)c1`, the “hERG current change (%, negative = inhibition) at 10uM” value was 35.1%.
`Cl.O=C(NCCNCCO)c1c(O)c2cccc3c2n(c1=O)CCC3`: the “hERG current change (%, negative = inhibition) at 10uM” value is on record as -1.89%.
For the molecule `[O-]/[N+](=C\c1ccccc1)c1ccccc1`, the “hERG current change (%, negative = inhibition) at 10uM” value turned out to be 8.94%.
Then `CCCOc1cccc(C2/C(=C(\O)c3ccc4c(c3)OCCO4)C(=O)C(=O)N2CCCn2ccnc2)c1` (stereo not drawn), with 14.7%; and `O=C(CC(=O)N/N=C/c1c(F)cccc1Cl)NCc1ccccc1`, with -10.8%; and `O=C(Nc1nc2ccccc2[nH]1)c1ccc(S(=O)(=O)N2CCOCC2)cc1`, with 2.85%.
Take `O=C(N/N=C/c1cccc([N+](=O)[O-])c1)C1CC1c1ccccc1` (stereo not drawn): the “hERG current change (%, negative = inhibition) at 10uM” value is listed as -2.96%.
For `CN(CCc1ccccn1)C(=O)CCc1nnc(CCCc2ccccc2)o1`, the “hERG current change (%, negative = inhibition) at 10uM” value was 2.54%.
Consider `Cc1nn(-c2ccccc2)c(C)c1/C=N/NC(=O)c1cc(-c2cccs2)[nH]n1`, for which the “hERG current change (%, negative = inhibition) at 10uM” value is 1.84%.
In the case of `CSc1nc2c(c(=O)n1Cc1ccccc1)SC(C)C2` (stereo not drawn) it was -21.2%; in that of `O=C(N/N=C/c1ccccc1C(F)(F)F)c1ccc(O)cc1`, -3.87%; in that of `O=c1c2c(ncn2C2CCCC2)n(Cc2ccccc2)c(=O)n1CCOc1ccccc1`, -8.64%.
`CCOC(=O)N1CCC(NS(=O)(=O)c2ccc(C)c(Cl)c2)CC1`: the “hERG current change (%, negative = inhibition) at 10uM” value was -37%.
As to `COc1ccc(-c2cc(C(F)F)n3ncc(C(=O)N4CCN(C)CC4)c3n2)cc1`, the “hERG current change (%, negative = inhibition) at 10uM” value is recorded as -9.23%.
Turning to `Cc1ccc(C2/C(=C(/O)c3ccc(OC(C)C)cc3)C(=O)C(=O)N2CCN2CCOCC2)cc1` (stereo not drawn), the “hERG current change (%, negative = inhibition) at 10uM” value is listed as -2%.
Turning to `CN(C)CCN=Cc1c(O)n(C2CCCCCC2)c(=O)[nH]c1=O`, the “hERG current change (%, negative = inhibition) at 10uM” value turned out to be 7.08%.
As to `CCN(CC)CCSc1nc(O)c(C(C)C)c(=O)[nH]1.Cl`, the “hERG current change (%, negative = inhibition) at 10uM” value is 15.7%.
On to `Cc1c(C(=O)NCc2ccco2)oc2ccc(S(=O)(=O)N3CCC4(CC3)OCCO4)cc12`, for which the “hERG current change (%, negative = inhibition) at 10uM” value is listed as -19.7%.
As to `Cc1cc(C)n(-c2nncc(-c3ccccc3)n2)n1`, the “hERG current change (%, negative = inhibition) at 10uM” value was -15.4%.
In the case of `CCN1C(=O)[C@H]2[C@@H](c3ccc(OC)cc3)N3C(=O)CN(CC4CC4)C(=O)[C@@]3(C)[C@H]2C1=O` it was -25%; in that of `Cc1csc(CN(C)C(=O)CC2C(=O)NCCN2Cc2ccc(Cl)c(F)c2)n1` (stereo not drawn), 4.4%; in that of `CCOc1ccc(N(CC(=O)Nc2ccc(C)c(C)c2)S(=O)(=O)c2c(C)[nH]c(=O)[nH]c2=O)cc1`, 7.1%.
